Values marked as one replicate rest on one cluster of the flow cell; about a third of the high ones do not repeat.
The sequences below were run on ATP (assay: switch fluorescence ratio, 500 uM ATP over buffer (Cy3 cluster intensity, sum of 5 cycles each) (fold (ratio)); higher = stronger signal-on switching upon ATP binding; sequences stand for … in TCGTCGGCAGCGTCAGATGTGTATAAGAGACAGTTTTTTTTTTTTTTTTTTTTTTTTT…TC). Details: aptamer strand: ATP DNA aptamer (quencher-CACCTGGGGGAGTATTGCGGAGGAAGG + anchor), 100 nM annealed; ATP concentration: 500 uM; one replicate.
In short: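 The quencher-labelled ATP aptamer, at 100 nM, was annealed to Cy3-labelled switching-strand clusters on a modified Illumina MiSeq flow-cell. The clusters were imaged in selection buffer, then after 15 min with 500 uM ATP at 22 °C, and this buffer/ATP cycle ran five times with NaOH stripping and re-annealing between runs. Per-cluster fluorescence ratios, summed target-cycle over summed buffer-cycle Cy3 intensity, were averaged per switch-domain sequence. Clusters outside 100-1000 RFU were excluded.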
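Further: ATP exposure 15 min at 22 °C before imaging.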

Sequence | switch fluorescence ratio
ACGGAACGAA | 1.09
ACGGAACTGA | 1.13
ACGGAAGCGA | 0.977
ACGGAATCAA | 1.11
ACGGACGTAT | 1.01
ACGGACGTCC | 0.977
ACGGAGACAG | 1.16
ACGGAGATGG | 1
ACGGAGCCCA | 1.4
ACGGAGGTGT | 1.09
ACGGATATAT | 1.01
ACGGATGCAA | 3.36
ACGGATGGGA | 1.03
ACGGATTAT | 1.04
ACGGATTCGT | 1.01
ACGGCCCCGA | 1.03
ACGGCGCAAA | 1.41
ACGGCGGACT | 0.994
ACGGCGTCTT | 1.02
ACGGCGTGTC | 0.962
ACGGCTGTGA | 0.991
ACGGCTTAA | 1
ACGGGAAATG | 1.81
ACGGGAGCGA | 0.985
ACGGGAGTCT | 0.952

Sequence | switch fluorescence ratio
ACGGGCAACA | 1.09
ACGGGCTCGG | 0.982
ACGGGGATG | 1.09
ACGGGGGAAA | 0.993
ACGGGGTAAG | 1.03
ACGGGGTCGT | 1.02
ACGGGTAGAA | 0.971
ACGGGTCATT | 1.01
ACGGGTCCG | 1.12
ACGGGTGGGC | 1.07
ACGGTATATG | 1.15
ACGGTATGGA | 1.04
ACGGTCACGT | 0.999
ACGGTCATTC | 1.02
ACGGTCGGCG | 1.03
ACGGTGAACG | 1.03
ACGGTTAGC | 1.1
ACGTAGATTG | 1
ACGTAGTCTG | 1.02
ACGTATAAAC | 1.19
ACGTCAGGAC | 1.58
ACGTCATGGT | 1.14
ACGTCGGCTA | 1.05
ACGTCTAGGT | 1.02
ACGTGAGGGA | 1.03

Sequence | switch fluorescence ratio
ACGTGCACCA | 1.18
ACGTGCCCGA | 1
ACGTGTATCC | 1.06
ACGTGTCGGA | 1.02
ACGTTAAGCT | 1.18
ACGTTACCCT | 1.56
ACGTTATATA | 1.22
ACGTTATCTC | 1.16
ACGTTCAAAC | 1.18
ACGTTCGACA | 1.24
ACGTTCGGCC | 1.03
ACGTTCTCGC | 1.08
ACGTTCTTGC | 0.962
ACGTTGAACC | 1.16
ACGTTGATCG | 1.01
ACGTTGATGC | 1.15
ACGTTGCCTT | 0.998
ACGTTGCTGT | 1.12
ACGTTGTGGG | 0.984
ACTAAAGGA | 1.02
ACTAACTTAT | 1.11
ACTAAGAAGT | 0.999
ACTAAGAGCT | 1.04
ACTAAGGTTT | 1.03
ACTAATACG | 1.12

Sequence | switch fluorescence ratio
ACTAATCTGA | 1.07
ACTAATTGCG | 0.974
ACTACACTCA | 1.22
ACTACCGTTT | 1.06
ACTACGAAGG | 1.03
ACTACGGC | 1.22
ACTACGGGTC | 1.13
ACTACTCGTG | 1.02
ACTACTGAGG | 1.07
ACTACTTCCC | 1.23
ACTAGAGTGT | 1.01
ACTAGCGAAG | 1.02
ACTAGCTCAT | 0.975
ACTAGTCAGT | 1.09
ACTAGTCTAG | 0.98
ACTATAAGGG | 1.08
ACTATACCGC | 1.23
ACTATAGACA | 1.05
ACTATCACCT | 1.24
ACTATCTCCT | 1.07
ACTATCTGGT | 0.974
ACTATGATC | 1.03
ACTATGTTCT | 1.02
ACTATTCGAC | 1.04
ACTCACGTTA | 1.4

— the supplement of paper PMC10126150
